The source gives no read counts; variants with many changes may rest on few reads.
B1: CPEB3 Ribozyme (parent)
chain: UAACAGGGGGCCACAGCAGAAGCGUUCACGUCGCAGCCCCUGUCAGAUUCUGGUGAAUCUGCGAAUUCUGCUGUAUAUCUC

Variants of: B1
Test: self-cleavage, relative activity (ratio to wild type); higher = more cleavage; in vitro, sequencing
Procedure, shortened: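 Barcoded CPEB3 ribozyme mutants, produced by rounds of error-prone PCR, self-cleaved while being transcribed with T7 RNA polymerase for 5 hours at 37°C and during a subsequent 15 min DNase I step before EDTA was added. Sequencing of template-switched cDNA on Illumina gave cleaved and total reads, and DNA sequencing assigned barcodes to variants. Each variant's relative activity is its cleaved/total read fraction divided by the unmutated ribozyme's fraction, averaged across three batches. A variant needed a minimum of 5 reads.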

For UAACAGGGGGCCACAGCAGAAGCGUUCACGUCGCAGCCCCUGUCAGACUCUGGUGAAUCUGCGAAUCCUGCUGUAUAUCCC, which self-cleavage is on record?
Its self-cleavage is 0.31.

For UAACAGGGGGCCACAGCAGAAGCGUUCACGUCGCAGCCCCUGUCAGACUCUGGUGAAUCUGCGAAUUCCGCCGUAUAUCUC, which self-cleavage is on record?
The self-cleavage was 0.34.

Which self-cleavage does the source give for UAACAGGGGGCCACAGCAGAAGCGUUCACGUCGCAGCCCCUGUCAGACUCUGGUGAAUCUGCGAAUUCCGCCGUAAAUCUC here?
Its self-cleavage is 0.25.

With UAACAGGGGGCCACAGCAGAAGCGUUCACGUCGCAGCCCCUGUCAGACUCUGGUGAAUCUGCGAAUUCCGCUGUAUAACUC as the variant, how does the self-cleavage read?
Its self-cleavage is 0.47.

Which self-cleavage does the source give for UAACAGGGGGCCACAGCAGAAGCGUUCACGUCGCAGCCCCUGUCAGACUCUGGUGAAUCUGCGAAUUCUGCAGUAUAACUC here?
Its self-cleavage is 0.33.

Which self-cleavage does the source give for UAACAGGGGGCCACAGCAGAAGCGUUCACGUCGCAGCCCCUGUCAGACUCUGGUGAAUCUGCGAAUUCUGCAGUAUACCUC here?
Its self-cleavage is 0.48.

Which self-cleavage does the source give for UAACAGGGGGCCACAGCAGAAGCGUUCACGUCGCAGCCCCUGUCAGACUCUGGUGAAUCUGCGAAUUCUGCCGUACAUCUC here?
Its self-cleavage is 0.46.

Which self-cleavage does the source give for UAACAGGGGGCCACAGCAGAAGCGUUCACGUCGCAGCCCCUGUCAGAGUCUGGUGGGUCUGCGAAUUCUGCUGUUUAUCCC here?
Its self-cleavage is 0.21.

With UAACAGGGGGCCACAGCAGAAGCGUUCACGUCGCAGCCCCUGUCAGAGUCUGGUGAAUCUGCGGAUUCUGCUGUAUUUCUC as the variant, how does the self-cleavage read?
The self-cleavage was 0.26.

For UAACAGGGGGCCACAGCAGAAGCGUUCACGUCGCAGCCCCUGUCAGAGACUGGUGAAUCUGCAAAUUCUGCUGUAUAUCUC, which self-cleavage is on record?
Its self-cleavage is 0.2.

Which self-cleavage does the source give for UAACAGGGGGCCACAGCAGAAGCGUUCACGUCGCAGCCCCUGUCAGAGUCAGGCGAAUCUGCGAAUCCUGCUGUAUAUCUC here?
The self-cleavage was 0.31.

With UAACAGGGGGCCACAGCAGAAGCGUUCACGUCGCAGCCCCUGUCAGAGUCUGGUGAAUCUGCGAAUUCUGCCGAAUAUCUC as the variant, how does the self-cleavage read?
The self-cleavage was 0.33.

For UAACAGGGGGCCACAGCAGAAGCGUUCACGUCGCAGCCCCUGUCAGAUACUGGUGGCUCUGCGAAUUCUGCUGUAUAUCUC, which self-cleavage is on record?
The self-cleavage was 0.15.

With UAACAGGGGGCCACAGCAGAAGCGUUCACGUCGCAGCCCCUGUCAGAUACUGGUGGGUCUGCGAAUUCUGCUGUAUAUCUC as the variant, how does the self-cleavage read?
Its self-cleavage is 0.19.

With UAACAGGGGGCCACAGCAGAAGCGUUCACGUCGCAGCCCCUGUCAGAUACUGGUGGAUCUGCGUAUUCUGCUGUAUAUCUC as the variant, how does the self-cleavage read?
The self-cleavage was 0.2.

Which self-cleavage does the source give for UAACAGGGGGCCACAGCAGAAGCGUUCACGUCGCAGCCCCUGUCAGAUACUGGUGGACCCGCGAAUUCUGCUGUAUAUCUC here?
Its self-cleavage is 0.15.

For UAACAGGGGGCCACAGCAGAAGCGUUCACGUCGCAGCCCCUGUCAGAUACUGGUGGACCUGCGAAUUCUGCGGUAUAUCUC, which self-cleavage is on record?
The self-cleavage was 0.28.

Which self-cleavage does the source give for UAACAGGGGGCCACAGCAGAAGCGUUCACGUCGCAGCCCCUGUCAGAUACUGGUGGACCUGCGAAUUCUGCUGUAUAUCCC here?
The self-cleavage was 0.17.

For UAACAGGGGGCCACAGCAGAAGCGUUCACGUCGCAGCCCCUGUCAGAUACUGGUGGAUCCGCGAAUUCCGCUGUAUAUCAC, which self-cleavage is on record?
The self-cleavage was 0.13.

For UAACAGGGGGCCACAGCAGAAGCGUUCACGUCGCAGCCCCUGUCAGAUACUGGUGGAUCUGCGAAAACUGCUGUAUAUCUC, which self-cleavage is on record?
The self-cleavage was 0.35.

Which self-cleavage does the source give for UAACAGGGGGCCACAGCAGAAGCGUUCACGUCGCAGCCCCUGUCAGAUACUGGUGGAUCUGCGAAUCCUGCUGUAUAUCUC here?
Its self-cleavage is 0.21.

For UAACAGGGGGCCACAGCAGAAGCGUUCACGUCGCAGCCCCUGUCAGAUACUGGUGUGUCUGCGAAUUCUGCUGUAUAUCUC, which self-cleavage is on record?
The self-cleavage was 0.98.

Which self-cleavage does the source give for UAACAGGGGGCCACAGCAGAAGCGUUCACGUCGCAGCCCCUGUCAGAUACUGGUGUAUCUGCGAAUCCUGCUGUAUAUCUC here?
The self-cleavage was 0.14.

With UAACAGGGGGCCACAGCAGAAGCGUUCACGUCGCAGCCCCUGUCAGAUACUGGUGAAUCUGCGCAUUCUGCUGUAUAUCCC as the variant, how does the self-cleavage read?
Its self-cleavage is 0.17.

With UAACAGGGGGCCACAGCAGAAGCGUUCACGUCGCAGCCCCUGUCAGAUACUGGUGAAUCUGCGGAUUCUGCUGUAUAUUUC as the variant, how does the self-cleavage read?
Its self-cleavage is 0.59.

For UAACAGGGGGCCACAGCAGAAGCGUUCACGUCGCAGCCCCUGUCAGAUACUGGUGAAUCUGCGUAUUCUGCUGUGUAUCUC, which self-cleavage is on record?
Its self-cleavage is 0.14.

Which self-cleavage does the source give for UAACAGGGGGCCACAGCAGAAGCGUUCACGUCGCAGCCCCUGUCAGAUACUGGUGAAUCUGCGAGUUCAGCUGUAUAUCUC here?
The self-cleavage was 0.31.

For UAACAGGGGGCCACAGCAGAAGCGUUCACGUCGCAGCCCCUGUCAGAUACUGAUGGAUCUGCGAAUUCUGCUGUAUAUCUC, which self-cleavage is on record?
The self-cleavage was 0.72.

For UAACAGGGGGCCACAGCAGAAGCGUUCACGUCGCAGCCCCUGUCAGAUACAGGUGGAUCUGCGAAUUCUGCUGUAUAUCUC, which self-cleavage is on record?
The self-cleavage was 0.18.

With UAACAGGGGGCCACAGCAGAAGCGUUCACGUCGCAGCCCCUGUCAGAUACAGGUGAAUCUGCGAAUUCUGCUGUAUGUCUC as the variant, how does the self-cleavage read?
Its self-cleavage is 0.26.

With UAACAGGGGGCCACAGCAGAAGCGUUCACGUCGCAGCCCCUGUCAGAUACAGGUGAAUCCGCGAAAUCUGCUGUAUAUCCC as the variant, how does the self-cleavage read?
Its self-cleavage is 0.16.

For UAACAGGGGGCCACAGCAGAAGCGUUCACGUCGCAGCCCCUGUCAGAUACCGGUGAAUCUGCGGAUUCUGCUGUAUAUCUC, which self-cleavage is on record?
Its self-cleavage is 0.39.

For UAACAGGGGGCCACAGCAGAAGCGUUCACGUCGCAGCCCCUGUCAGAUACCGGUGAAUCUGCGAAUCCUGCUGUAUAACUC, which self-cleavage is on record?
The self-cleavage was 0.5.

With UAACAGGGGGCCACAGCAGAAGCGUUCACGUCGCAGCCCCUGUCAGAUACGGGUGAAUCGGCGAAUUCUGCUGUAUAUCUC as the variant, how does the self-cleavage read?
Its self-cleavage is 0.14.
